Test results reported in PubChem BioAssay AID2675 (National Center for Advancing Translational Sciences (NCATS), 2010).
The whole screen tested about 280,000 compounds, of which about 100 (0.036%) were called active. Inconclusive means that the source gave no clear call. Such entries were picked first, then a sample of the others. The call rests on the fitted dose curve; in most records, active means well fitted inhibition curve with a large enough effect in the signal ratio, with a control signal flat (not every such curve was filed as active); inconclusive means small, poorly fitted or top-dose-only effect, or effect the other way, or a change in a side signal; inactive means no such curve, though single readings can be large or run the other way; the % refers to the signal ratio. Potencies of inconclusive entries are doubtful fits and often do not repeat. “Side channel” marks fits to a control or component signal instead of the main read-out.

molecular target: Muscleblind-like protein 1 (Homo sapiens) (UniProt Q9NR56); experiment: qHTS Assay for Inhibitors of MBNL1-poly(CUG) RNA binding; conditions: TR-FRET MBNL1-His/biotin-(CUG)12 binding, 665/545 ratio; series mostly up to 57.5 µM
Summary of the method: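 His-tagged MBNL1 binding to biotinylated (CUG)12 RNA was measured by TR-FRET using terbium anti-His antibody (0.055 ng/ul final) and streptavidin-XL665 (5 nM final). Compounds were titrated 92 nM to 58 uM; 60 min at room temperature.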
Potency means the concentration at half of the fitted maximal effect; tags describe the fitted curve by direction and shape or compound fluorescence and quenching.

UniProt Q9NR56, sequence (Q9NR56 whole entry, looked up): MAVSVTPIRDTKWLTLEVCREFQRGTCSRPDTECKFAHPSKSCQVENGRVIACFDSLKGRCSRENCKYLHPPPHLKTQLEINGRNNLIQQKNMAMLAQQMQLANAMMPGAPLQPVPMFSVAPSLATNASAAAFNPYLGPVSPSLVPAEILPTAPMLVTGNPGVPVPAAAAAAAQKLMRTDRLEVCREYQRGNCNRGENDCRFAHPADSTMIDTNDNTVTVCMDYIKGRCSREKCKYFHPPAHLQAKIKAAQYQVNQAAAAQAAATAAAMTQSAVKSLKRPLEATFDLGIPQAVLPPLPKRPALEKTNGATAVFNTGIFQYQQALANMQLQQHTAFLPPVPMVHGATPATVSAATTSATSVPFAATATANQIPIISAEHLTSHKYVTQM

| SMILES | Potency |
| --- | --- |
| Cc1ccc(/C=N/NC(=O)c2cc(-c3ccncc3)nc3ccccc23)o1 | inconclusive: 15.8 µM [quencher, side channel, partial curve] |
| COc1ccc2c(Cl)c(-c3nnc(SCC(N)=O)n3C)sc2c1 | inconclusive: 2.82 µM [quencher, side channel, single point] |
| CC(C)(C)c1cc[n+](-c2[nH]c(=O)sc2/C=N/N=C(\[O-])c2ccccc2)cc1 | inconclusive: 8.91 µM [quencher, side channel, partial curve] |
| c1cc2c3c(cccc3c1)C(N1CCCCC1)=N2 | inconclusive: 15.8 µM [quencher, side channel, partial curve] |
| Nc1c(C(=O)c2ccccc2)sc2nsc(SCCN3CCCC3)c12 | inconclusive: 14.1 µM [quencher, side channel, partial curve] |
| Cc1cc(C)n(S(=O)(=O)c2cccc([N+](=O)[O-])c2)n1 | inconclusive: 15.8 µM [quencher, side channel, partial curve] |
| O=S(=O)(NCCN1CCCC1)c1ccc(Cl)cc1 | inconclusive: 17.8 µM [fluorescent, side channel, partial curve] |
| O=C(O)CCS(=O)(=O)c1nc(-c2cccs2)cc(C(F)(F)F)n1 | inactive |
| CCOC(=O)C1NN=C(C(=O)c2ccccc2)C1c1ccccc1 (stereo not drawn) | inconclusive: 0.1 µM [fluorescent, side channel, full curve] |
| COc1cc(NC(=O)COC(C)=O)c(C)cc1[N+](=O)[O-] | inconclusive: 31.6 µM [quencher, side channel, single point] |
| Cc1cc2nc(-c3cc(N4CCOCC4)ccc3[N+](=O)[O-])ccn2n1 | inconclusive: 20 µM [quencher, side channel, partial curve] |
| CC1CCCN(c2nc3c(c(=O)n(C)c(=O)n3C)n2CCSc2nc3ccccc3o2)C1 (stereo not drawn) | inconclusive: 3.16 µM [fluorescent, side channel, partial curve] |
| O=C(NCCc1nc2ccccc2[nH]1)c1cc([N+](=O)[O-])cc([N+](=O)[O-])c1 | inconclusive: 3.98 µM [quencher, full curve] |
| Nc1cc(N2CCCCC2)c(Cl)cc1[N+](=O)[O-] | inconclusive: 22.4 µM [quencher, side channel, single point] |
| NS(=O)(=O)c1ccc(-c2ccc(C=O)o2)cc1 | inconclusive: 20 µM [quencher, side channel, partial curve, poor fit] |
| COc1ccc2nc(-c3ccccc3)nc(SCC(=O)NCC3CCCO3)c2c1 (stereo not drawn) | inactive |
| Nc1nc2c([N+](=O)[O-])cccc2s1 | inconclusive: 14.1 µM [quencher, side channel, partial curve] |
| CCc1ccccc1NC1=NCC(=O)N1C1CCCC1 | inactive |
| Cc1ccc(C(=O)O/N=C(\N)c2ccccc2)c(Cl)c1 | inactive |
| CCN1CCN(c2ccc([N+](=O)[O-])cc2C(=O)c2ccc(Cl)cc2)CC1 | inconclusive: 7.08 µM [quencher, side channel, partial curve] |
| Cc1ccc[n+](-c2nc([O-])sc2/C=N/Nc2ccc([N+](=O)[O-])cc2)c1 | inconclusive: 2.82 µM [quencher, side channel, partial curve] |

| SMILES | Potency |
| --- | --- |
| O=C(c1ccccc1)c1nn(-c2ccc(Cl)cc2)c(=O)cc1C(F)(F)F | inconclusive: 31.6 µM [quencher, side channel, partial curve] |
| CCN(C(=O)CCS(=O)(=O)c1cccc2nonc12)c1ccc(C)c(C)c1 | inconclusive: 8.91 µM [quencher, side channel, partial curve] |
| O=Cc1cn(CC(=O)N2CCCCC2)c2ccccc12 | inactive |
| O=C(/C=C/c1ccc([N+](=O)[O-])cc1)NCc1ccc2c(c1)OCO2 | inconclusive: 22.4 µM [quencher, side channel, partial curve] |
| CCN(CC)CCCn1c(=S)[nH]c2cc(Cl)ccc2c1=O | inactive |
| O=c1ccc(-c2ccc(S(=O)(=O)NCC3CCN(Cc4cccc(F)c4)CC3)s2)n[nH]1 | inconclusive: 20 µM [quencher, side channel, partial curve] |
| Nc1ccc2[nH]ncc2c1 | inconclusive: 4.47 µM [quencher, side channel, partial curve] |
| O=C(O)c1c(-c2ccccc2)nnc2ccccc12 | inconclusive: 28.2 µM [quencher, side channel, partial curve] |
| Cc1ccc2nc(N3CCOCC3)c(C=O)cc2c1 | inconclusive: 7.94 µM [quencher, side channel, partial curve] |
| COc1ccc(CCNc2c3ccccc3nc3ccccc23)cc1OC | inconclusive: 20 µM [quencher, side channel, partial curve] |
| COc1ccccc1/C=C(/NC(=O)c1ccccc1)C(=O)NCCCn1ccnc1 | inactive |
| Cc1cccc(CCN=c2c([N+](=O)[O-])nn(-c3ccccc3)n2O)c1 | inconclusive: 17.8 µM [quencher, partial curve] |
| CCN(CC)c1ccc(/C=C2/C(=O)ON=C2C)cc1 | inconclusive: 11.2 µM [quencher, side channel, partial curve, poor fit] |
| CCOc1ccccc1-n1c(SCC(N)=O)nnc1-c1ccc(O)cc1 | inactive |
| N/C(=N\OC(=O)c1ccc([N+](=O)[O-])cc1Cl)c1ccccn1 | inconclusive: 10 µM [quencher, partial curve] |
| Nc1c(C(=O)NCCN2CCOCC2)c2nc3ccccc3nc2n1-c1ccccc1 | inconclusive: 20 µM [quencher, side channel, partial curve, poor fit] |
| COc1cc(/C=C2/C(C)=C(C#N)c3nc(N)c(C#N)c(C)c32)ccc1OCC(=O)O | inconclusive: 14.1 µM [quencher, side channel, partial curve] |
| CN1C=CC=C/C1=C1\SC(=S)N(CC(=O)O)C1=O | inconclusive: 31.6 µM [quencher, side channel, single point] |
| O=C(N/N=C/c1ccco1)c1cc(=O)[nH]c2ccccc12 | inconclusive: 31.6 µM [quencher, side channel, single point] |
| Cc1ccc2cc3cc(C(=O)NC4CC4)oc3nc2c1 | inconclusive: 3.16 µM [quencher, full curve] |
| Cc1[nH]c2ccccc2c1SCC(=O)N1CCCc2ccccc21 | inconclusive: 0.708 µM [fluorescent, side channel, single point] |

| SMILES | Potency |
| --- | --- |
| CCN1CCN(C(=O)Nc2cccc(C(F)(F)F)c2)CC1 | inactive |
| O=C(N/N=C(\c1ccccc1)c1ccccn1)c1cccc([N+](=O)[O-])c1 | inconclusive: 15.8 µM [quencher, partial curve] |
| Cc1ccc(NC(=O)/C(Cl)=C\c2ccccc2)cc1 | inconclusive: 14.1 µM [quencher, side channel, partial curve] |
| CC1CCN(C(=O)C(NS(=O)(=O)c2cccc3nsnc23)C(C)C)CC1 (stereo not drawn) | inconclusive: 15.8 µM [quencher, partial curve] |
| O=C1Nc2ccccc2OCc2c1cccc2[N+](=O)[O-] | inconclusive: 39.8 µM [quencher, single point] |
| O=c1cc(NCCc2ccccc2)c2ccccc2o1 | inactive |
| Cc1cc(=O)oc(C)c1C(=O)Nc1cccc2nonc12 | inconclusive: 14.1 µM [quencher, side channel, partial curve] |
| Cc1ccc(/C=C2/Sc3ccc(C(=O)N4CCN(C)CC4)cc3NC2=O)cc1 | inconclusive: 14.1 µM [quencher, side channel, partial curve] |
| O=[N+]([O-])c1ccc(Sc2cccc3cccnc23)cc1 | inconclusive: 14.1 µM [quencher, side channel, partial curve] |
| Brc1c(CSc2nncn2-c2ccccc2)nc2sccn12 | inactive |
| Cc1ccc(S(=O)(=O)CC#CCOC(=O)c2ccc([N+](=O)[O-])cc2)cc1 | inconclusive: 12.6 µM [quencher, side channel, partial curve] |
| O=C(COc1ccc2ccccc2c1)Nc1ccc(Cc2ccncc2)cc1 | inactive |
| Cc1cc2c(ccc3c2no[n+]3[O-])nn1 | inconclusive: 12.6 µM [quencher, side channel, partial curve] |
| CCOC(=O)c1ccc(NCc2cccnc2)cc1 | inactive |
| CN1C(C(=O)Nc2cccc(O)c2)=CC(c2ccco2)=NS1(=O)=O | inconclusive: 17.8 µM [quencher, side channel, partial curve] |
| N#Cc1c(-c2ccco2)cc(-c2ccccn2)nc1N | inconclusive: 4.47 µM [quencher, side channel, full curve] |
| Cc1cc(=O)oc2cc(OCCSCCN3CCCC3)ccc12 | inactive |
| S=C1NC2=C(CCCC2)C2(CCCCC2)N1 | inactive |
| COc1cccc(NC(=O)c2ccnc(N3CCC(C(=O)NCc4ccccc4OC)CC3)c2)c1 | inconclusive: 35.5 µM [fluorescent, side channel, single point] |
| C/C(=N\NC(=O)c1ccccc1[N+](=O)[O-])c1c(O)cc(C)oc1=O | inactive |
| Cc1cccc(C)c1NC(=O)/C(C#N)=C/c1cccs1 | inconclusive: 31.6 µM [quencher, single point] |
